This is one part of the list. At the low end of the ranking the order means little.
Target: GST-SBP-SLBP (stem-loop binding protein) (UniProt Q14493)
Experiment: targeted RNA Bind-n-Seq;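 also: DESeq read counts versus GST-SBP nonspecific binding control pulldown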
Conditions: RBNS binding buffer: 25 mM Tris pH 7.5, 150 mM KCl, 3 mM MgCl2, 0.1% Tween, 0.5 mg/mL BSA, 1 mM DTT; 27 nM protein, 750 pM RNA pool; temperature not stated; high values mean tight binding

Sequence	binding signal (log2 fold change)
GGUCACGUCUCAAUCAACUCCUCAGAGGGGGGGAAAACCCCUUUACCCUCCAUGUCAACAGCUCGCAGUCAAG	-0.276
GGUCACGUCUCAAUCAACUCAAGUCCAGGAGUUUACUCCUGCAAUCUCAACAGCUCGCAGUCAAG	-0.0987
GGUCACGUCUCAAUCAACUCUCAAGAGGGGGGGAAAACCCCUUUGCCCUCCAUAUCAACAGCUCGCAGUCAAG	-0.17
GGUCACGUCUCAAUCAACUCUUCUUCCAGGGAAAACCCUGGUAAUGUCAACAGCUCGCAGUCAAG	0.12
GGUCACGUCUCAAUCAACUCAUUUUCCAGGGAAAUCCCUGGCUUACUCAACAGCUCGCAGUCAAG	-0.0356
GGUCACGUCUCAAUCAACUCAUUCCCAGGAGUUUCCUCCUGUAUACUCAACAGCUCGCAGUCAAG	0.0107
GGUCACGUCUCAAUCAACUCUAUCGAGGGGGGGAAAACCCCUUUACCCUCAUCCUCAACAGCUCGCAGUCAAG	-0.419
GGUCACGUCUCAAUCAACUCUAUCCCCAGGGAAAGCCCUGGCAUACUCAACAGCUCGCAGUCAAG	-0.272
GGUCACGUCUCAAUCAACUCAUCUUCAGGAGUUUACUCCUGUUUUCUCAACAGCUCGCAGUCAAG	0.0272
GGUCACGUCUCAAUCAACUCUACUCCCAGGGAAAUCCCUGGUUAACUCAACAGCUCGCAGUCAAG	0.0703
GGUCACGUCUCAAUCAACUCAAUCCCCAGGGAAAGCCCUGGCAAAUUCAACAGCUCGCAGUCAAG	-0.0658
GGUCACGUCUCAAUCAACUCUUCCCCCAGGGAAAUCCCUGGCUUUUUCAACAGCUCGCAGUCAAG	0.279
GGUCACGUCUCAAUCAACUCAUCUUCCAGGGAAAGCCCUGGCUAAUUCAACAGCUCGCAGUCAAG	0.217
GGUCACGUCUCAAUCAACUCAUCCCCAGGAGUUUCCUCCUGUAAACUCAACAGCUCGCAGUCAAG	0.031
GGUCACGUCUCAAUCAACUCUAUAGAGGGGGGGAAAACCCCUUUGCCCUCAUUUUCAACAGCUCGCAGUCAAG	-0.0364
GGUCACGUCUCAAUCAACUCAUUUUCAGGAGUUUCCUCCUGCAUUUUCAACAGCUCGCAGUCAAG	-0.0704
GGUCACGUCUCAAUCAACUCUUUUUCCAGGGAAAACCCUGGUUAUUUCAACAGCUCGCAGUCAAG	-0.054
GGUCACGUCUCAAUCAACUCUUCUCCCAGGGAAAGCCCUGGCAAUGUCAACAGCUCGCAGUCAAG	0.156
GGUCACGUCUCAAUCAACUCUACAGAGGGGGGGAAAACCCCUUUACCCUCCCAAUCAACAGCUCGCAGUCAAG	-0.177

Sequence	binding signal (log2 fold change)
GGUCACGUCUCAAUCAACUCUUAAGAGGGGGGGAAAACCCCUUUACCCUCGUCAUCAACAGCUCGCAGUCAAG	0.24
GGUCACGUCUCAAUCAACUCAUUUUCAGGAGUUUUCUCCUGCAUAUUCAACAGCUCGCAGUCAAG	0.0407
GGUCACGUCUCAAUCAACUCAAUUCCAGGAGUUUUCUCCUGUUAUCUCAACAGCUCGCAGUCAAG	-0.161
GGUCACGUCUCAAUCAACUCCUACGAGGGGGGGAAAACCCCUUUACCCUCAACCUCAACAGCUCGCAGUCAAG	0.619
GGUCACGUCUCAAUCAACUCAUACGAGGGGGGGAAAACCCCUUUGCCCUCAAAAUCAACAGCUCGCAGUCAAG	-0.136
GGUCACGUCUCAAUCAACUCUUCGCCCAGGGAAAUCCCUGGUUUUUUCAACAGCUCGCAGUCAAG	-0.209
GGUCACGUCUCAAUCAACUCUUUCUCCAGGGAAACCCCUGGCUUUCUCAACAGCUCGCAGUCAAG	0.00602
GGUCACGUCUCAAUCAACUCUACUCCAGGAGUUUUCUCCUGCUAUCUCAACAGCUCGCAGUCAAG	0.13
GGUCACGUCUCAAUCAACUCAUCGUCAGGAGUUUUCUCCUGUAUUUUCAACAGCUCGCAGUCAAG	-0.0133
GGUCACGUCUCAAUCAACUCAUUCUCCAGGGAAAUCCCUGGCAUACUCAACAGCUCGCAGUCAAG	0.258
GGUCACGUCUCAAUCAACUCAAUUUCAGGAGUUUUCUCCUGCUUUUUCAACAGCUCGCAGUCAAG	-0.0958
GGUCACGUCUCAAUCAACUCUAUCUCCAGGGAAAUCCCUGGUAAUCUCAACAGCUCGCAGUCAAG	-0.0443
GGUCACGUCUCAAUCAACUCAUCCUCCAGGGAAAUCCCUGGCUUUUUCAACAGCUCGCAGUCAAG	0.141
GGUCACGUCUCAAUCAACUCAUCCCCCAGGGAAACCCCUGGCUAUUUCAACAGCUCGCAGUCAAG	-0.316
GGUCACGUCUCAAUCAACUCUACUCCAGGAGUUUACUCCUGUUAUUUCAACAGCUCGCAGUCAAG	0.0217
GGUCACGUCUCAAUCAACUCUUCGUCCAGGGAAAUCCCUGGUAAUCUCAACAGCUCGCAGUCAAG	-0.144
GGUCACGUCUCAAUCAACUCUAUCCCAGGAGUUUUCUCCUGCAAUUUCAACAGCUCGCAGUCAAG	-0.076
GGUCACGUCUCAAUCAACUCUUUCUCCAGGGAAAUCCCUGGUAAUGUCAACAGCUCGCAGUCAAG	-0.00776

— paper PMC5892938
